The values that follow come from the supplement of paper PMC9446081.

In all, about 39,000 compounds went through this assay and about 220 (0.56%) showed activity. This is one part of the list.
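Further: static incubation at 37 °C against the wild-type strain, values averaged over two biological replicates.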

The subject of this test is Escherichia coli K-12 BW25113. Nature of the test: relative growth (OD600 normalised to plate interquartile mean) (fraction); higher = less growth inhibition, active = 0.2 or less. To be noted: 50 µM; LB; incubation time: overnight (16-24 h).
Turning to `CC(=O)NCCCC[C@@H]1NC(=O)[C@H]2C[C@@H](C(=O)NCCCCCNC(=O)CS)[C@@H](c3ccc(O)cc3)N2C1=O`, the relative growth was inactive: 0.984. The figure for `Cc1noc(C)c1NC(=O)Nc1cccc2c1O[C@@H](CN(C)C(=O)Nc1cccc3ccccc13)[C@H](C)CN([C@H](C)CO)C2=O` is inactive: 0.982.

Take `Cc1ccc2cccc(OCCOc3ccccc3C(C)C)c2n1`: the relative growth was inactive: 1.05. Regarding `Cc1ccc(O)cc1`, the relative growth was inactive: 1.05. The figure for `COc1ccc(CN(C)C[C@H]2OCCCC[C@@H](C)Oc3ccc(NC(=O)Nc4cccc5ccccc45)cc3C(=O)N([C@H](C)CO)C[C@@H]2C)cc1` is inactive: 0.984. The figure for `C[C@H]1CN([C@@H](C)CO)C(=O)CCCn2cc(nn2)CO[C@H]1CN(C)C(=O)Nc1ccc2c(c1)OCCO2` is inactive: 1.01; for `CN(C)c1nc(N(C)C)nc(N(C)C)n1` it is inactive: 1.15. Consider `CC(C)NC(=O)Nc1cccc2c1O[C@H](CN(C)Cc1ccc3c(c1)OCO3)[C@H](C)CN([C@@H](C)CO)C2=O`, for which the relative growth is inactive: 1.01. The figure for `C[C@@H]1CN([C@@H](C)CO)C(=O)c2cccc(NC(=O)Nc3cccc4ccccc34)c2O[C@H]1CN(C)C(=O)Nc1ccc(C(F)(F)F)cc1` is inactive: 1.01; for `C[C@H](CO)N1C[C@H](C)[C@@H](CN(C)C(=O)NC2CCCCC2)Oc2c(NC(=O)c3ccc(-c4nccs4)cc3)cccc2C1=O` it is inactive: 1. Under `O=C(CN1CCOCC1)N[C@@H]1CC[C@H](CCNS(=O)(=O)c2ccccc2F)O[C@@H]1CO` stands inactive: 1.01; under `C[C@H]1CN([C@@H](C)CO)C(=O)c2cc(NC(=O)Nc3ccccc3)ccc2O[C@H]1CN(C)Cc1ccc(Oc2ccccc2)cc1`, inactive: 1.03; under `COc1ccc(S(=O)(=O)N(C)C[C@H]2Oc3ccc(NC(=O)Nc4c(C)noc4C)cc3C(=O)N([C@@H](C)CO)C[C@@H]2C)cc1`, inactive: 1.02. The figure for `Clc1ccc2nc(Cl)cc(-c3ccccc3)c2c1` is inactive: 1. Take `C[C@@H]1CN([C@@H](C)CO)C(=O)Cc2cc(NS(=O)(=O)c3ccccc3)ccc2O[C@@H]1CN(C)Cc1ccc(C(=O)O)cc1`: the relative growth is inactive: 1.01. Under `CC(=O)N[C@H]1[C@H](O/N=[N+](\[O-])N2CCCC2)O[C@H](CO)[C@@H](O)[C@@H]1O` stands inactive: 0.993; under `C[C@H](CO)N1C[C@H](C)[C@H](CN(C)S(=O)(=O)c2ccc(F)cc2)Oc2ncc(C#Cc3ccc(F)cc3)cc2C1=O`, inactive: 1.02; under `Cc1noc(C)c1S(=O)(=O)Nc1ccc2c(c1)C(=O)N([C@@H](C)CO)C[C@@H](C)[C@H](CN(C)S(=O)(=O)c1ccccc1)O2`, inactive: 1.
